According to paper PMC6149971, “In Vivo and In Vitro Activities and ADME-Tox Profile of a Quinolizidine-Modified 4-Aminoquinoline: A Potent Anti-P. falciparum and Anti-P. vivax Blood-Stage Antimalarial” (Molecules : A Journal of Synthetic Chemistry and Natural …, 2017):

Key:
[1] = tested on: P. falciparum FCR1 (CQ-R); test: In vitro chemosensitivity assay (pLDH), FCR1 strain; format: cell-based; details: Plasmodium falciparum; 72 h incubation, pLDH method, mean of 3 experiments
P. yoelii = test: Standard four-day suppressive test, P. yoelii; format: in vivo; details: CD1 mice, oral, once a day for four days, parasitaemia on day 4
Description: Groups of five CD1 mice were inoculated i.v. with 4 × 10^6 infected erythrocytes/mice. The compound, dissolved in standard suspending formula (SSV) (0.5% sodium carboxymethylcellulose, 0.5% benzyl alcohol, 0.4% Tween 80, 0.9% NaCl), was administered orally, once a day for a period of four days, starting two hours post-infection. […] Parasitaemia was determined by microscopic examination of Giemsa-stained blood films taken on day four, processed using MICROSOFT® EXCEL spreadsheets (Microsoft Corp., Redmond, WA, USA), and expressed as percentages of inhibition from the arithmetic mean parasitaemias of each group in relation to the untreated group. ED50 and ED90 values were calculated by GraphPad Prism 6 (GraphPad Software Inc, La Jolla, CA, USA).

CYP2D6 = CYP2D6 (Homo sapiens, UniProt P10635); test: in vitro
UniProt P10635, sequence (P10635 whole entry): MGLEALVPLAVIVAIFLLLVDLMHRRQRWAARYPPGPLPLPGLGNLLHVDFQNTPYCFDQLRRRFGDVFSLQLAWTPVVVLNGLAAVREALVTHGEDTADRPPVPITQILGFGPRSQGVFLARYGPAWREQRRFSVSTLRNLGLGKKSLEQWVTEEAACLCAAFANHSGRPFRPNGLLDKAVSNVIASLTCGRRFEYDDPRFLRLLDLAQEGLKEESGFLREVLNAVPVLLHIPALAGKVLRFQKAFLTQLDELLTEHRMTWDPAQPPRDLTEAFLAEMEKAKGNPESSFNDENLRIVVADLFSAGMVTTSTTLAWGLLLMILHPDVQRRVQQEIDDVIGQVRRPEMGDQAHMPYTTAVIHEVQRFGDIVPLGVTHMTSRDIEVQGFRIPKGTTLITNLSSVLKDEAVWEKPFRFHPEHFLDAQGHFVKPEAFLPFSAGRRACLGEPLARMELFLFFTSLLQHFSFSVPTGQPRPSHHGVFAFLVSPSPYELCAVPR

Which results are given for `Clc1ccc2c(NC[C@@H]3CCCN4CCCC[C@H]34)ccnc2c1` [(−)-AM1, 7-chloro-N-(((1S,9aR)-octahydro-1H-quinolizin-1-yl)methyl)quinolin-4-amine]?
IC50 [1]: 32.9 nM; P. yoelii ED90 (95% CI) (P. yoelii): 4.95 (3.08–7.94) mg/kg; ED50 (P. yoelii; Plasmodium yoelii, 96 h, read-out: P. yoelii ED50 (95% CI)): 1.55 mg/kg; inhibition at 3 µM (CYP2D6): 74.4 ± 3.5%
